# Results from ChEMBL document CHEMBL4888484, “Replenishing the malaria drug discovery pipeline: Screening and hit evaluation of the MMV Hit Generation Library 1 (HGL1) against asexual blood stage Plasmodium falciparum ,using a nano luciferase reporter read-out” (2022).
# About 540 (0.36%) of roughly 150,000 compounds showed an effect of 50% or more. Some of the results follow.
# Tested on: Plasmodium falciparum
# Test: Primary screen in NF54 nanoGlo assay, in single point, at 2uM, 72h; a lower Z score goes with more inhibition
# Format: functional, Erythrocyte
# Conditions: timepoint 72 hour
Structure (SMILES),% Inhibition [%],Z score
N#Cc1cc(N2CC[C@H](S(N)(=O)=O)C2)ccn1,4,-0.61
COc1ccccc1CNC(=O)c1ccc(C)nc1C1CCN(S(=O)(=O)c2ccccc2)CC1,-9,1.05
O=S(=O)(c1ccc(S(=O)(=O)N(Cc2ccc(F)cc2)C2CCCCC2)cc1)N1CCOCC1,-2,0.21
O=C(Nc1ccc(CCc2nc3ccccc3[nH]2)cc1)c1cnccn1,-17,1.66
C1=C[C@@H](N2CCN(c3cc(N4CCOCC4)ncn3)CC2)CCC1,4,-0.54
CC(NC(=O)N(C)C)C1Oc2ccccc2C1C (stereo not drawn),12,-1.9
CN(Cc1cc(-c2ccccc2)on1)c1nc2c(c(=O)[nH]1)CCNCC2,-10,1.55
O=C(C[C@@H]1CCNC[C@@H]1Cc1cc(CN2CCN(c3ccccc3)CC2)on1)N1CCC(Cc2ccccc2)CC1,10,-1.49
COc1nn(C)cc1C(=O)N1CCC[C@H](COCc2ccccc2)C1,-3,0.57
Cc1n[nH]c(C2CC2)c1C(=O)NCCN1CCCC[C@@H]1CO,0,-0.05
CS(=O)(=O)N1C[C@H]2CCN(C(=O)Cc3c[nH]c4ccccc34)C[C@@]2(CO)C1,-5,0.64
O=C(c1c(Cl)cccc1Cl)N(C(=O)c1c(Cl)cccc1Cl)c1nc2ccccc2s1,-21,2.81
CN(CCNS(=O)(=O)c1cnn2c1OCCC2)c1ccccn1,0,0.06
CCCc1ccc(C(=O)N2c3ccccc3C(Nc3ccccc3)[C@H](C)C2CC)cc1 (stereo partly drawn),6,-0.76
Cc1ncsc1CN[C@@H](C)CC(C)(C)C#N,11,-1.38
N#Cc1cc(F)ccc1CN1C(=O)[C@@H]2CCCN2C1=O,-14,1.76
Cn1ccc(NC(=O)N2CCN(CCOc3ccc4c(c3)CCC4)CC2)n1,5,-0.64
COC(=O)CN(C)c1ccc(C(=O)NC2CCOCC2)nn1,-3,0.37
Fc1cccc2c(N3CCC3)ncnc12,3,-0.63
C[C@](O)(CNC(=O)c1ccsn1)C(F)(F)F,-7,1.2
c1nc(Oc2ccc3c(c2)CCC3)c2ccsc2n1,-8,1.21

Structure (SMILES),% Inhibition [%],Z score
CN1C(=O)C(C)(C)c2cc(S(=O)(=O)N3CCC[C@H](CN4CCc5ccccc5C4)C3)ccc21,-13,1.68
CCCN(CC(=O)Nc1nc(CC(=O)NCCN2CCCCC2)cs1)C(=O)c1ccc(Cl)c(Cl)c1,-12,2.25
COc1cccc(-n2ccc3c(nnc4nc(C)nn43)c2=O)c1,-3,0.35
Cc1ccc(CNC(=O)c2nc(-c3nc(-c4ccncc4)no3)cs2)cc1,-13,1.33
O=C(Nc1ccc(S(=O)(=O)Nc2cccc3ccccc23)cc1)c1ccc(Br)cc1,-13,1.76
O=C(N[C@@H](c1ccccc1)c1nc2ccccc2[nH]1)c1ccco1,-6,0.77
Cc1cnc(C)c(N2CC(c3ccncc3)C2)n1,-10,1.32
CC1(C)[C@H](Cc2cc(COc3ccccc3)on2)C[C@@H]1NC1CCOCC1,18,-2.1
O=C(CC1CCCC1)N1CC(Nc2ccncn2)C1,-8,0.95
Cc1cc(NC(=O)N2CC[C@H](CN3CCCC3)C2)ccc1Br,-5,0.69
Cc1ncccc1C(=O)N1CC[C@@H](c2ccccc2)S(=O)(=O)CC1,-5,0.85
O=C(CCc1nc(-c2ccsc2)no1)Nc1cccc(-c2nnco2)c1,-3,0.47
CC1CN(S(=O)(=O)NCc2nc3ccccc3s2)CC(C)O1 (stereo not drawn),-12,1.21
O=C1C[C@H](NS(=O)(=O)c2ccc3c(c2)OCCO3)CN1c1ccc2c(c1)OCCO2,10,-1.4
COC(=O)NCC(=O)NCC1(Cc2ccccc2)CCC1,29,-3.27
CC(NC(C)c1ccccc1Cl)C(=O)NC(C)(C)C (stereo not drawn),4,-0.48
COC(=O)C1(CNC(=O)N2CC(C)C2c2ccccc2)CCOCC1 (stereo not drawn),-3,0.42
COc1ccc(NC(=O)C2C3CCC4C(CCC32)C4(Cl)Cl)cc1 (stereo not drawn),-7,0.77
CC(=O)c1ccc(-c2ccc(C(=O)NC3CCCCCC3)o2)cc1,-12,1.03
CCCc1ccc(-c2nc(NC(=O)c3cc4c([nH]c3=O)CCCC4=O)sc2C)cc1,2,-0.3
C[C@H]1Cc2ccccc2N1C(=O)Cn1cc(-c2ccn(C)n2)nn1,6,-0.77

Structure (SMILES),% Inhibition [%],Z score
CC(=O)NC(C)(C)C[C@H](C)NC1(c2cccc(C)c2)CC1,-11,1.81
O=C(O)CC[C@H]1CCCN(C(=O)c2ccc3c(c2)OCCCO3)C1,11,-1.72
CC(=O)Nc1cccc(C(F)F)c1Cl,-3,0.44
N#CC1(c2nc3ccccc3[nH]2)CC1c1ccccc1Cl (stereo not drawn),27,-3.07
O=C(c1c[nH]c(=O)cn1)N1CCc2c(Cl)cccc21,17,-2.01
COc1ccc(N[C@H]2CC(=O)N(c3ccc(C(C)=O)cc3)C2=O)cc1S(=O)(=O)N1CCOCC1,0,0.04
O=C(NC[C@@H](CO)Cc1ccsc1)c1ccc(-n2cnnc2)nc1,-1,0.26
O=C([C@H]1CC[C@H](Cn2cnnn2)CC1)N1CCO[C@H](c2ccccc2)C1,-10,1.43
Cc1cc2cc(S(=O)(=O)N3CCCC3(C)C)ccc2[nH]c1=O,-11,1.47
Cc1c(CNC(=O)c2ncoc2C(F)(F)F)cnn1C,9,-1.27
CC(C)(C)CC(C)(C)Nc1c(-c2ccc(F)cc2)nc2c(OCc3ccccc3)cccn12,-2,0.32
COc1cccc(C2c3[nH]c4ccccc4c3C[C@H]3C(=O)N(CCO)CC(=O)N23)c1 (stereo partly drawn),-1,0.12
OCCn1c(-c2cccc3cccnc23)nc2ccccc21,-11,2.03
COc1cc(C2N[C@H](C(=O)O)Cc3c2[nH]c2ccccc32)ccc1OCc1ccccc1 (stereo partly drawn),-3,0.42
O=S(=O)(N1CCCC1)N1CCc2c(ncnc2N2CCOCC2)C1,-3,0.45
COc1ccc(-c2cc(C(=O)N3CCCCCC3)[nH]n2)cc1,1,-0.13
CC1CCCN(C(=O)Nc2ccncn2)C1C (stereo not drawn),2,-0.25
Cn1c(=O)c2c(ncn2CCCC(=O)N2CCC(C(=O)N3CCCCCC3)CC2)n(C)c1=O,-5,0.64
COc1cc(C(=O)N[C@@H]2COCC[C@@H]2OCC(=O)N(C)C)ccc1O,-3,0.48
O=C(c1ccc(Cl)c(N2CCCC2=O)c1)N1CC=C(c2c[nH]c3ccccc23)CC1,1,-0.17
CCNC(=O)N[C@H]1CC(=O)N(C2Cc3ccccc3C2)C1,5,-0.61

Structure (SMILES),% Inhibition [%],Z score
c1cnc(-n2cnc3ccccc32)c(CNC2CCOCC2)c1,-11,1.74
CCNc1ncc(CN(C)CCC2(O)CCCC2)cn1,2,-0.3
O=C(NCc1cccs1)NC1CCCC1,29,-3.95
CC(C)(C)S(=O)(=O)[C@H]1CCN(C(=O)CCc2ccc(Cl)c(C(F)(F)F)c2)C1,-6,0.86
CC(C)CCNC(=O)c1[nH]cnc1C(=O)NCC1CC1,10,-1.21
CC(C)N1CCN(C(=O)c2nccnc2NC(=O)c2ccccc2)CC1,1,-0.15
CC(=O)NC(C)(C)C(=O)NCc1cc(C2CC2)on1,-2,0.28
O=C(NCCN1CCOCC1)c1cncc(-c2ccccc2F)c1,-2,0.28
C=CCn1cc2c3c(cccc31)[C@H](CC(C)C)N[C@H](C(=O)NCCCN1CCCC1=O)C2,-15,1.98
COC(=O)C(C#N)C(C#N)c1ccccc1F (stereo not drawn),-9,1
Cc1ccc([C@H](C)NC(=O)c2sccc2C2CC2)s1,-19,1.94
CC(=O)Nc1cc(C(=O)N/C(=N/c2ccc(C(C)C)cc2)NCc2ccccn2)ccc1C,-29,2.64
Cc1nc2ccccc2n1-c1nc(-c2ccco2)cc(C(F)(F)F)n1,-4,0.68
COC(=O)c1n[nH]cc1-c1cc(-c2ccc(C)c(C)c2)nc(N)c1C#N,6,-0.61
CCc1c(C)noc1NC(=O)c1cnc(C2CC2)nc1,-6,0.96
COc1cccc(CNS(=O)(=O)c2ccc(C(=O)N3CCCC3)s2)c1,-14,2.55
CCOC(=O)NCCC(=O)NCc1nc(C)n2c1CCCC2,-2,0.24
Cc1ccc(CN2CCOC[C@@H](C3CCC3)C2)nc1,-2,0.18
O=C(NCCc1ccccc1)c1coc(CN2CCN(c3ncccn3)CC2)n1,-1,0.17
COc1ccc(CN(C)Cc2nc(C)no2)c(OC[C@@H](O)CN2CCCC2)c1,6,-1.05
COCCN(C)c1ncc(F)c(NCC(F)F)n1,11,-1.41
